Experimental findings from the supplement of paper PMC9174493 are described below.

Test [1] deals with A549-Dual. The test can be described thus: NF-kB reporter (SEAP) activity, viability-corrected, relative to vehicle (fold change vs vehicle); higher = more activation of STING-IRF / NF-kB immune response reporter. Particulars: 10 µM.
In test [2] the test system is A549-Dual. The test can be described thus: ISRE reporter (Lucia luciferase) activity, viability-corrected, relative to vehicle (fold change vs vehicle); higher = more activation of STING-IRF / NF-kB immune response reporter. Particulars: 10 µM.

Structures are written as SMILES. Some of the results follow. Single values of this set are uncertain. Values with irradiation are relative to irradiated vehicle.
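For NF-kB reporter (SEAP) activity, viability-corrected, relative to vehicle in this document: viability correction based on the alamar blue assay, with concentrations leaving 10% survival or less dropped.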

Regarding `CC(=O)OCC1=C(C(=O)[O-])N2C(=O)C(NC(=O)CSc3ccncc3)C2SC1.[Na+]` (centres undefined) [Cephapirin Sodium], the figures for the NF-kB reporter in the test with A549-Dual [1] (irradiation: 8 Gy/4 fr) and with A549-Dual [1] (irradiation: none) were 0.758 and 0.751, respectively. In addition, the ISRE reporter with A549-Dual [2] (irradiation: 8 Gy/4 fr) came out at 0.695; in the test on A549-Dual [2] (irradiation: none) it was 0.455.
In the case of `CC(C)(O/N=C(\C(=O)NC1C(=O)N2C(C(=O)[O-])=C(C[n+]3ccccc3)CSC12)c1csc(N)n1)C(=O)O` (centres undefined) [Ceftazidime], the NF-kB reporter was found to be 0.738 in the test with A549-Dual [1] (irradiation: 8 Gy/4 fr) and 0.882 in the test on A549-Dual [1] (irradiation: none). Further, the ISRE reporter was determined as 0.78 in the test with A549-Dual [2] (irradiation: 8 Gy/4 fr) and 0.837 with A549-Dual [2] (irradiation: none).
With `CNC1CCCN(c2c(F)cc3c(=O)c(C(=O)O)cn(C4CC4)c3c2OC)C1` (centres undefined) [Balofloxacin], the NF-kB reporter with A549-Dual [1] (irradiation: 8 Gy/4 fr) turned out to be 0.871; with A549-Dual [1] (irradiation: none) it was 0.944. Also, the ISRE reporter in the test with A549-Dual [2] (irradiation: 8 Gy/4 fr) worked out at 0.678; in the test on A549-Dual [2] (irradiation: none) it was 0.952.
Taken in the same sequence, the figures for `CCOc1nc2cccc(C(=O)OC(C)OC(=O)OC3CCCCC3)c2n1Cc1ccc(-c2ccccc2-c2nnn[nH]2)cc1` (centres undefined) [Candesartan Cilexetil] were 0.489, 0.509, 0.574 and 0.75.
On to `Nc1ccn(C2CSC(CO)O2)c(=O)n1` (centres undefined) [Lamivudine], for which the NF-kB reporter with A549-Dual [1] (irradiation: 8 Gy/4 fr) stood at 0.704; in the test with A549-Dual [1] (irradiation: none) it was 1.01. Moreover, the ISRE reporter in the test on A549-Dual [2] (irradiation: 8 Gy/4 fr) was determined as 0.796; in the test on A549-Dual [2] (irradiation: none), 0.964.
For the compound `COc1cc(NS(C)(=O)=O)ccc1Nc1c2ccccc2nc2ccccc12.Cl` [Amsacrine hydrochloride], the results for the NF-kB reporter with A549-Dual [1] (irradiation: 8 Gy/4 fr) and with A549-Dual [1] (irradiation: none) were 5.99 and 8.15, respectively. The ISRE reporter with A549-Dual [2] (irradiation: 8 Gy/4 fr) amounted to 2.18; in the test on A549-Dual [2] (irradiation: none) it was 9.19.
As for `CCCc1nc(C)c2c(=O)[nH]c(-c3cc(S(=O)(=O)N4CCN(CC)CC4)ccc3OCC)nn12.Cl.O.O.O` [Vardenafil HCl Trihydrate], the NF-kB reporter in the test on A549-Dual [1] (irradiation: 8 Gy/4 fr) stood at 1.06; in the test with A549-Dual [1] (irradiation: none) it was 0.692. Moreover, the ISRE reporter in the test with A549-Dual [2] (irradiation: 8 Gy/4 fr) is 1.43; with A549-Dual [2] (irradiation: none) it was 0.872.
For `Cl.Nc1ncnc2[nH]cnc12` [Adenine HCl], the values for the NF-kB reporter in the test with A549-Dual [1] (irradiation: 8 Gy/4 fr) and in the test on A549-Dual [1] (irradiation: none) were 0.735 and 0.559, respectively. Moreover, the ISRE reporter amounted to 0.761 with A549-Dual [2] (irradiation: 8 Gy/4 fr) and 0.624 in the test on A549-Dual [2] (irradiation: none).
The compound `CCCCc1oc2ccc(NS(C)(=O)=O)cc2c1C(=O)c1ccc(OCCCN(CCCC)CCCC)cc1` [Dronedarone] yielded an NF-kB reporter with A549-Dual [1] (irradiation: none) of 2.54. Besides, in the test with A549-Dual [2] (irradiation: none), the ISRE reporter amounted to 0.858.
Turning to `Cl.O=S(=O)(c1cccc2cnccc12)N1CCCNCC1` [Fasudil (HA-1077) HCl], the NF-kB reporter is 0.654 in the test with A549-Dual [1] (irradiation: 8 Gy/4 fr) and 1 in the test with A549-Dual [1] (irradiation: none). Further, the ISRE reporter in the test with A549-Dual [2] (irradiation: 8 Gy/4 fr) was found to be 0.436; in the test on A549-Dual [2] (irradiation: none) it was 0.678.
As to `CC(O)C1C(=O)N2C(C(=O)O)=C(SC3CNC(C(=O)N(C)C)C3)C(C)C12.O.O.O` (centres undefined) [Meropenem Trihydrate], the NF-kB reporter with A549-Dual [1] (irradiation: 8 Gy/4 fr) was found to be 0.646; in the test on A549-Dual [1] (irradiation: none), 0.756. Also, the ISRE reporter in the test with A549-Dual [2] (irradiation: 8 Gy/4 fr) stood at 0.701; in the test with A549-Dual [2] (irradiation: none), 0.582.
`CC(C)(C)CC(C)(C)c1ccc(O)c(Cc2ccc(Cl)cc2Cl)c1` [Clofoctol] displayed an NF-kB reporter with A549-Dual [1] (irradiation: none) of 4.68. Besides, the ISRE reporter with A549-Dual [2] (irradiation: none) amounted to 0.641.
